Three proteins from article PMC11199487, “Hub stability in the calcium calmodulin-dependent protein kinase II” (Communications Biology, 2024) can be followed below.

Series [1] deals with the molecule itself. Kind of series: single-molecule TIRFM (spot intensity and photobleaching steps); Venus-tagged CaMKII stock diluted >1000x in AB- buffer, immobilised on a GFP antibody-coated coverslip, unbound protein washed out, room temperature.
Series [2] concerns the molecule itself. Kind of series: SEC; EnRich SEC 650 column, 50 mM Tris, 150 mM KCl, 0.2 mM TCEP, 2% glycerol, pH 8.0, room temperature, thawed stocks applied without dilution, 250 μL, 1 mL/min.

B1: CaMKIIα holoenzyme F394A (6His-V15-mCaMKIIaF394A) (enzyme)
chain: not shown
notes: also called α_(F394A); source: E. coli BL21/Rosetta, co-transformed with a protein phosphatase plasmid, purified (nickel Hi-Trap); not shown: Venus, N-terminal, kept
The stoichiometry N is a count of units in the complex or per binding partner. In the case of B1, in series [1], the “stoichiometry N” value came to 2.

B2: CaMKIIβ holoenzyme, native (6His-V15-rCaMKIIβ) (enzyme)
chain: not shown
notes: rat CaMKII beta, open reading frame codon optimized for bacterial expression; also called native β holoenzyme; V-CaMKII β; source: E. coli BL21/Rosetta, co-transformed with a protein phosphatase plasmid, purified (nickel Hi-Trap); not shown: Venus, N-terminal, kept
For B2, the binding result in series [1] was “binds”.

B3: CaMKIIβ holoenzyme F458A (6His-V15-rCaMKIIβ F458A) (enzyme)
chain: not shown
notes: rat CaMKII beta, open reading frame codon optimized for bacterial expression, with F458A; also called dimeric βF458A; source: E. coli BL21/Rosetta, co-transformed with a protein phosphatase plasmid, purified (nickel Hi-Trap); not shown: Venus, N-terminal, kept
B3: the “stoichiometry N” value in series [2] was determined as 2.
